# Test results as given in patent US6214969A, “Luteinizing hormone releasing hormone analogs with cytotoxic moiety” (The Administrators of the Tulane Educational Fund, priority 1993, dated 2001).
# At least one peptide structure holds a part that was inferred or is arguable (an end, a ring closure or a residue). Square brackets hold non-standard residues; d marks the D form. Peptide text beside a SMILES is read from it. * marks the point of attachment. X1 = O=C(NC[C@H](NC(=O)C1CC1)C(=O)*)C1CC1; dPhe(4-Cl) = N[C@H](Cc1ccc(Cl)cc1)C(=O)O; d2Nal = N[C@H](Cc1ccc2ccccc2c1)C(=O)O; Cyclopropanecarbonyl = O=C(C1CC1)*; d3Pal = N[C@H](Cc1cccnc1)C(=O)O
# Columns and labels:
# [1] = target: T1, membrane receptors of human breast cancer cells (LHRH receptors) (Homo sapiens, UniProt P30968); experiment: Receptor binding affinity for human breast cancer cell membranes, 125I-[D-Trp]6 LHRH as labelled ligand; conditions: 125I-[D-Trp]6 LHRH ligand, NB = no binding
# T1 construct: from tissue
# T1 sequence (P30968 1-328): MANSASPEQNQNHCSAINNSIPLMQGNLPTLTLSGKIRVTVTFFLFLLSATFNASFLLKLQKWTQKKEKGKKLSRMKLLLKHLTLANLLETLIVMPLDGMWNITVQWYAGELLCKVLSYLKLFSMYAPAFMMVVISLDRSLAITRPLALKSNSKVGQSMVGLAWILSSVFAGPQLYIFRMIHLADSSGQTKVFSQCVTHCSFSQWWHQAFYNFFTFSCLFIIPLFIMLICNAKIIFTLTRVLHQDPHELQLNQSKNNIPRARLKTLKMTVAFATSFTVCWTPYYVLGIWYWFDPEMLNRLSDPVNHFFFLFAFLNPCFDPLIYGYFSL
# Description: Affinity for peptides to human breast cancer cell membranes is determined by using labelled LHRH and [D-Trp^6 ]LHRH. The assay is carried out similarly to that described by T. Kadar et al., Proc. Natl. Acad. Sci. USA, 85, 890-894 (1988) and M. Fekete et al., Endocrinology, 124, 946-955 (1989).
# (§1) Table 2 presents the antiovulatory activity and human breast cancer cell membrane receptor binding affinity of the claimed compounds having LHRH-inhibiting properties. The inhibitory action was determined in vivo, in 4-day cycling rats as described [A. Corbin and C. W. Beattie, Endocr. Res. Commun., 2, 1-23 (1975)].
# [2] = test system: dispersed rat pituitary cells (LH release); experiment: LH-releasing activity in superfused rat pituitary cell system; format: cell-based; conditions: Table 1; compared to that produced by 3 nM LH-RH; peptide infused 3 min
# Source text: B. Greenstein, Harwood Academic Publishers, London, (1990)].
# [3] = test system: MCF-7 human breast cancer cell line; experiment: Inhibition of 3H-thymidine incorporation into DNA, MCF-7; format: cell-based
# Description: Ability of peptides of Formula I to inhibit incorporation of [^3 H]thymidine into DNA of monolayer cultures the human mammary tumor cell line MCF-7 is assayed as described [V. K. Sondak et al., Cancer Research, 44, 1725-1728 (1984); F. Holzel et al., J. Cancer Res. Clin. Oncol. 109, 217-226 (1985); M. Albert et al., J. Cancer Res. Clin. Oncol. 109, 210-216 (1985)].
# (§2) 200,000 cells in 200 μl of […]+2% CFBS were incubated with 1, 5 or 10 μg cytotoxic analogs for 3 hours or 23 hours then 1 μCi ^3 H-thymidine added and incubated an additional 60 min. DNA extracted with 1 N perchloric acid and the radioactivity measured.
# [4] = test system: ovulation in 4-day cycling rats; experiment: In vivo antiovulatory activity in 4-day-cycling rats; conditions: 10 μg per rat
# Description: This activity of the peptides is determined in 4-day-cycling rats as described [A. Corbin and C. W. Beattie, Endocr. Res. Commun., 2, 1-23 (1975)].
# as §1
# SkBr-3 Cell line = experiment: Inhibition of 3H-thymidine incorporation into DNA, SkBr-3; format: cell-based, human
# Description: as §2
# MDA-MB-231 Cell Line = experiment: Inhibition of 3H-thymidine incorporation into DNA, MDA-MB-231; format: cell-based, human
# Description: as §2
# T47D Cell line = experiment: Inhibition of 3H-thymidine incorporation into DNA, T47D; format: cell-based, human
# Description: as §2
structure (smiles),measurement,setting,value
"CC(C)C[C@H](NC(=O)[C@@H](CCCCNC(=O)C1CC1)NC(=O)[C@H](Cc1ccc(O)cc1)NC(=O)[C@H](CO)NC(=O)[C@H](Cc1c[nH]c2ccccc12)NC(=O)[C@H](Cc1c[nH]cn1)NC(=O)[C@@H]1CCC(=O)N1)C(=O)N[C@@H](CCCNC(=N)N)C(=O)N1CCC[C@H]1C(=O)NCC(N)=O [compound 2, pGlu-His-Trp-Ser-Tyr-D-Lys(CPC)-Leu-Arg-Pro-Gly-NH2]",Affinity Constant Ka1,[1]; Table 1 (agonists),1.65 nM⁻¹
same,Relative Activity (LH-releasing activity),[2],52
"CC(C)C[C@H](NC(=O)[C@@H](CCCCNC(=O)CCCC(=O)OCc1ccc2c(c1)C(=O)c1ccccc1C2=O)NC(=O)[C@H](Cc1ccc(O)cc1)NC(=O)[C@H](CO)NC(=O)[C@H](Cc1c[nH]c2ccccc12)NC(=O)[C@H](Cc1c[nH]cn1)NC(=O)[C@@H]1CCC(=O)N1)C(=O)N[C@@H](CCCNC(=N)N)C(=O)N1CCC[C@H]1C(=O)NCC(N)=O [compound 3, pGlu-His-Trp-Ser-Tyr-D-Lys(AQMOG)-Leu-Arg-Pro-Gly-NH2]",Relative Activity (LH-releasing activity),[2],35
same,% Inhibition at 4 hrs,[3]; dose 1 μg/ml,29%
same,% Inhibition at 24 hrs,[3]; dose 1 μg/ml,14%
same,% Inhibition at 4 hrs,[3]; dose 10 μg/ml,32%
same,% Inhibition at 24 hrs,[3]; dose 10 μg/ml,71%
"CC(C)C[C@H](NC(=O)[C@@H](CCCCNC(=O)[C@H](CNC(=O)C1CC1)NC(=O)C1CC1)NC(=O)[C@H](Cc1ccc(O)cc1)NC(=O)[C@H](CO)NC(=O)[C@H](Cc1c[nH]c2ccccc12)NC(=O)[C@H](Cc1c[nH]cn1)NC(=O)[C@@H]1CCC(=O)N1)C(=O)N[C@@H](CCCNC(=N)N)C(=O)N1CCC[C@H]1C(=O)NCC(N)=O [compound 6, pGlu-His-Trp-Ser-Tyr-D-Lys[A2 pr(CPC)2 ]-Leu-Arg-Pro-Gly-NH2]",Affinity Constant Ka1,[1]; Table 1 (agonists),0.14 nM⁻¹
same,Relative Activity (LH-releasing activity),[2],25
"CC(C)C[C@H](NC(=O)[C@@H](CCCNC(=O)C1CC1)NC(=O)[C@H](Cc1ccc(O)cc1)NC(=O)[C@H](CO)NC(=O)[C@H](Cc1c[nH]c2ccccc12)NC(=O)[C@H](Cc1c[nH]cn1)NC(=O)[C@@H]1CCC(=O)N1)C(=O)N[C@@H](CCCNC(=N)N)C(=O)N1CCC[C@H]1C(=O)NCC(N)=O [compound 9, pGlu-His-Trp-Ser-Tyr-D-Orn(CPC)-Leu-Arg-Pro-Gly-NH2]",Affinity Constant Ka2,[1]; Table 1 (agonists),44.2 µM⁻¹
same,Relative Activity (LH-releasing activity),[2],40
"CC(=O)N[C@H](Cc1ccc2ccccc2c1)C(=O)N[C@H](Cc1ccc(Cl)cc1)C(=O)N[C@H](Cc1c[nH]c2ccccc12)C(=O)N[C@@H](CO)C(=O)N[C@@H](CCCNC(=N)N)C(=O)N[C@H](CCCCNC(=O)C1CC1)C(=O)N[C@@H](CC(C)C)C(=O)N[C@@H](CCCNC(=N)N)C(=O)N1CCC[C@H]1C(=O)N[C@H](C)C(N)=O [compound 20, Ac-D-Nal(2)-D-Phe(4Cl)-D-Trp-Ser-Arg-D-Lys(CPC)-Leu-Arg-Pro-D-Ala-NH2] (Ac-[d2Nal][dPhe(4-Cl)][dW]SR[dK](Cyclopropanecarbonyl)LRP[dA]-NH2)",% Ovulation Blocked,[4],80%
"CC(=O)N[C@H](Cc1ccc2ccccc2c1)C(=O)N[C@H](Cc1ccc(Cl)cc1)C(=O)N[C@H](Cc1c[nH]c2ccccc12)C(=O)N[C@@H](CO)C(=O)N[C@@H](CCCNC(=N)N)C(=O)N[C@H](CCCCNC(=O)[C@H](CNC(=O)C1CC1)NC(=O)C1CC1)C(=O)N[C@@H](CC(C)C)C(=O)N[C@@H](CCCNC(=N)N)C(=O)N1CCC[C@H]1C(=O)N[C@H](C)C(N)=O [compound 24, Ac-D-Nal(2)-D-Phe(4Cl)-D-Trp-Ser-Arg-D-Lys[A2 pr(CPC)2 ]-Leu-Arg-Pro-D-Ala-NH2] (Ac-[d2Nal][dPhe(4-Cl)][dW]SR[dK](X1)LRP[dA]-NH2)",% Inhibition at 4 hrs,SkBr-3 Cell line; dose 1 μg/ml,37%
same,% Inhibition at 24 hrs,SkBr-3 Cell line; dose 1 μg/ml,18%
same,% Inhibition at 4 hrs,SkBr-3 Cell line; dose 10 μg/ml,42%
same,% Inhibition at 24 hrs,SkBr-3 Cell line; dose 10 μg/ml,29%
same,% Ovulation Blocked,[4],60%
same,% Inhibition at 4 hrs,MDA-MB-231 Cell Line; dose 1 μg/ml,25%
same,% Inhibition at 24 hrs,MDA-MB-231 Cell Line; dose 1 μg/ml,8%
same,% Inhibition at 4 hrs,MDA-MB-231 Cell Line; dose 10 μg/ml,73%
same,% Inhibition at 24 hrs,MDA-MB-231 Cell Line; dose 10 μg/ml,11%
same,Affinity Constant Ka1,[1]; Table 2 (antagonists),0.42 nM⁻¹
same,% Inhibition at 4 hrs,[3]; dose 1 μg/ml,25%
same,% Inhibition at 24 hrs,[3]; dose 1 μg/ml,8%
same,% Inhibition at 4 hrs,[3]; dose 10 μg/ml,34%
same,% Inhibition at 24 hrs,[3]; dose 10 μg/ml,37%
same,% Inhibition at 4 hrs,T47D Cell line; dose 1 μg/ml,44%
same,% Inhibition at 24 hrs,T47D Cell line; dose 1 μg/ml,22%
same,% Inhibition at 4 hrs,T47D Cell line; dose 10 μg/ml,50%
same,% Inhibition at 24 hrs,T47D Cell line; dose 10 μg/ml,12%
"CC(=O)N[C@H](Cc1ccc2ccccc2c1)C(=O)N[C@H](Cc1ccc(Cl)cc1)C(=O)N[C@H](Cc1cccnc1)C(=O)N[C@@H](CO)C(=O)N[C@@H](CCCNC(=N)N)C(=O)N[C@H](CCCCNC(=O)C1CC1)C(=O)N[C@@H](CC(C)C)C(=O)N[C@@H](CCCNC(=N)N)C(=O)N1CCC[C@H]1C(=O)N[C@H](C)C(N)=O [compound 27, Ac-D-Nal(2)-D-Phe(4Cl)-D-Pal(3)-Ser-Arg-D-Lys(CPC)-Leu-Arg-Pro-D-Ala-NH. sub.2] (Ac-[d2Nal][dPhe(4-Cl)][d3Pal]SR[dK](Cyclopropanecarbonyl)LRP[dA]-NH2)",% Ovulation Blocked,[4],100%
"CC(=O)N[C@H](Cc1ccc2ccccc2c1)C(=O)N[C@H](Cc1ccc(Cl)cc1)C(=O)N[C@H](Cc1cccnc1)C(=O)N[C@@H](CO)C(=O)N[C@@H](CCCNC(=N)N)C(=O)N[C@H](CCCCNC(=O)[C@H](CNC(=O)C1CC1)NC(=O)C1CC1)C(=O)N[C@@H](CC(C)C)C(=O)N[C@@H](CCCNC(=N)N)C(=O)N1CCC[C@H]1C(=O)N[C@H](C)C(N)=O [compound 31, Ac-D-Nal(2)-D-Phe(4Cl)-D-Pal(3)-Ser-Arg-D-Lys[A2 pr(CPC)2 ]-Leu-Arg-Pro-D-Ala-NH2] (Ac-[d2Nal][dPhe(4-Cl)][d3Pal]SR[dK](X1)LRP[dA]-NH2)",% Ovulation Blocked,[4],100%
same,Affinity Constant Ka1,[1]; Table 2 (antagonists),1.52 nM⁻¹
